Laboratory results published in ChEMBL document CHEMBL1201862, “PubChem BioAssay data set” (2004).

These compounds were tested on NCI-H322M (assay: growth of human tumour cells (NCI), 48 h).

SMILES	GI50
CC(=O)OC1COC(Nn2c(=O)[nH]c3ccccc3c2=O)C(OC(C)=O)C1OC(C)=O (stereo unspecified)	inactive: > 100 µM
Cc1cc2nc(C#N)c(N3CCN(c4ccc([N+](=O)[O-])cc4)CC3)nc2cc1C	inactive: 67.6 µM
CC(C)(C)OP(=O)(OC(C)(C)C)C(O)c1ccc(/C=C(\C#N)C(N)=O)cc1 (stereo unspecified)	inactive: > 100 µM
O=C1C=CC2OC(c3ccccc3)C(O)C2O1 (stereo unspecified)	inactive: 8.24 µM
C(=C\N1CCCCC1)/c1nnnn1-c1ccccc1	inactive: 38.9 µM
O=C(/N=C(/Nc1ccccc1)SCS/C(=N\C(=O)c1ccco1)Nc1ccccc1)c1ccco1	inactive: > 100 µM
COc1ccc(C(SC2C(O)C(CO)OC2n2ccc(=O)[nH]c2=O)(c2ccccc2)c2ccc(OC)cc2)cc1 (stereo unspecified)	inactive: 10.8 µM
CCOC(=O)C1Cc2[nH]c3ccccc3c2C(C)C1C (stereo unspecified)	inactive: 18.8 µM
COc1cc(C2c3cc4c(cc3OC(NN)C2C)OCO4)cc(OC)c1OC (stereo unspecified)	active: 0.394 µM
NCC1OC(n2cnc3c(N)ncnc32)CC1O (stereo unspecified)	inactive: > 100 µM
N#CSC/C(Cl)=C/Cl.N#CSC/C(Cl)=C\Cl	inactive: > 100 µM
CN(C(=O)c1cccs1)C(=S)N1CCN(c2ccccc2)CC1	inactive: > 100 µM
CCCCN(CCCC)C(=O)C(=O)CC(=O)c1ccc(Br)cc1	inactive: > 100 µM
[N-]=[N+]=CC(=O)OC1CCOCC1	inactive: > 100 µM
O=C1NC(=O)C(CC2CCCCCCCCCCC2=O)C(=O)N1 (stereo unspecified)	inactive: > 100 µM
COC1(OC)CCCCCCCCC(OC)(OC)CCCCCCCC1	inactive: > 100 µM
C[C@]12CC[C@H]3[C@@H](CCC4=C/C(=N/OCCN5CCCCC5)CC[C@@]43C)[C@@H]1CC[C@@H]2O	inactive: 20.3 µM
CC1=CC(=O)/C(=C/n2c(=S)[nH]c3cc(C)ccc32)C(=O)O1	inactive: > 100 µM
COc1ccc(NCc2cnc3nc(N)nc(N)c3c2C)cc1	inactive: 6.04 µM
O=C(NNCc1ccccc1O)c1ccccc1O	inactive: 10.7 µM
CSc1cc(Br)ccc1-n1c(C(=O)c2ccccc2)c(SC)n(-c2ccccc2)c1=O	inactive: > 100 µM
Cn1cnnc1Sc1c([N+](=O)[O-])nc(-c2ccc([N+](=O)[O-])cc2)n1C	inactive: > 100 µM
COC(=O)C(CSSC[C@H](N/C(C)=C/C(C)=O)C(=O)OC)N/C(C)=C/C(C)=O (stereo partly specified)	inactive: 25.6 µM

SMILES	GI50
COc1ccc(C(=O)OC2C=COC(C)C2OC(=O)c2ccc(OC)cc2)cc1 (stereo unspecified)	inactive: 66.8 µM
CCCCOC(=O)C1CC[C@H]2[C@@H]3CCc4cc(OC(=O)c5cccc6c(=O)c7ccccc7[nH]c56)ccc4[C@H]3CC[C@]12C (stereo partly specified)	inactive: 10.4 µM
CCCCCCCCCCCCCCCCCC(=O)NCC(COP(=O)(O)O)OCC (stereo unspecified)	inactive: 49.1 µM
CCc1cccc(C)c1NC(=O)NS(=O)(=O)c1ccc(C)cc1	inactive: > 100 µM
CN1C(c2ccccc2)CC(=NO)CC1c1ccccc1 (stereo unspecified)	inactive: 43.8 µM
CC1=CC(=O)/C(=C/NC(=S)C(N)=S)C(=O)O1	inactive: > 100 µM
Cc1cc(O)nc(CNC(=O)c2ccc3ccccc3c2)n1	inactive: > 100 µM
O=C(/C=C/c1ccccc1)Oc1cccc(O)c1	inactive: > 100 µM
O=P(Oc1ccc2ccccc2c1)(N1CC1)N1CC1	inactive: 72.4 µM
C=C1C[C@]23CC[C@@H]4C(CO)(CO)CC(=O)C[C@]4(C)[C@@H]2CC[C@H]1C3	inactive: > 100 µM
O=c1cc(-c2ccccc2)[nH]c2c(Cl)cccc12	inactive: 56.8 µM
COc1cc2c(cc1C)NC(=O)/C2=C/c1c(Cl)n(-c2ccccc2)c2ccccc12	inactive: 34.4 µM
COC(=O)C(=O)C(C(=O)C(=O)Nc1ccc(C)cc1C)c1nc2ccccc2nc1O (stereo unspecified)	inactive: 80.5 µM
CN1CCc2c1nc(-c1ccc([N+](=O)[O-])cc1)c1c2N(C)CC1	inactive: > 100 µM
C/C1=C/C2OC(=O)C3(C)C2C(CC2(C)OC1=CC2=O)OC3(O)C(C)C (stereo unspecified)	inactive: 39.8 µM
COCCOCCOC1=C(Cl)C(=O)c2c(O)ccc(O)c2C1=O	inactive: 13.2 µM
COc1ccc(C2N(c3ccc(F)c([N+](=O)[O-])c3)C(=O)N3C(c4ccc(OC)cc4)N(c4ccc(F)c([N+](=O)[O-])c4)C(=O)N23)cc1 (stereo unspecified)	inactive: > 100 µM
COC(=O)C1=C(C)C(=O)[C@]23C(CCCC[C@H]12)C(=O)[C@H](C(=O)OC)C3C (stereo partly specified)	inactive: > 100 µM
CC(=O)c1c2n(n(-c3ccccc3)c1=O)C(=O)c1nccnc1-2	inactive: > 100 µM
C/C(=N/NC(=S)Nc1ccccc1C)c1ccccn1	active: < 0.01 µM
N#CC(/C(=N/NC(=O)C(=O)NN)C(=O)Nc1nc([N+](=O)[O-])cs1)c1ccc(Cl)cc1 (stereo unspecified)	inactive: > 100 µM
COc1cc(O)c2c(c1C)C(C)(O)c1c(C)coc1C2=O (stereo unspecified)	inactive: > 100 µM
C/C=C(/C)C(=O)O[C@H]1[C@H](O)CC(c2ccc3c(c2O)C(=O)C2=C(O)C4(OC)C(=O)C(C(N)=O)=C(O)[C@H](CC(=O)c5ccccc5O)C4CC2[C@@]3(C)OC)O[C@@H]1C (stereo partly specified)	active: 0.0211 µM

SMILES	GI50
CC1(Br)C(=O)NC(=O)N(C2CC(N=[N+]=[N-])C(CO)O2)C1N=[N+]=[N-] (stereo unspecified)	inactive: > 100 µM
COc1ccc(C2C(Cl)C(=O)N2NC(=O)c2ccc(N)cc2)cc1 (stereo unspecified)	inactive: > 100 µM
Cc1cc(/N=C/c2ccc(Cl)cc2)n(-c2ccccc2)n1	inactive: 46 µM
N#CC(c1ccc(Cl)cc1)c1cccc(Cl)n1 (stereo unspecified)	inactive: 99.3 µM
N#C/C(C(=O)Nc1ccccc1)=C(/N)N1CCCC1	inactive: > 100 µM
CC(=O)NNc1nc(C)c(C(=O)NNC(=O)C(=O)Nc2ccc([N+](=O)[O-])cc2C#N)s1	inactive: > 100 µM
CC(C)CC1C(=O)NCCC(NC(=O)C(Cc2ccc(OC(C)(C)C)cc2)NC(=O)OC(C)(C)C)C(=O)NC(Cc2ccccc2)C(=O)NC(Cc2ccccc2)NC1=O (stereo unspecified)	inactive: 4.89 µM
NC(=O)c1ccc(/N=N/O)nc1	inactive: > 100 µM
COc1ccc2nc(NC(=O)C(=O)CC(=O)c3ccc([N+](=O)[O-])cc3)sc2c1	inactive: > 100 µM
CC(O[Si](c1ccccc1)(c1ccccc1)C(C)(C)C)[C@H](NC(=O)OC(C)(C)C)C(=O)O (stereo partly specified)	inactive: 39.4 µM
ClC1=NN=C(c2c[nH]c3ccccc23)CC1NCc1ccccc1 (stereo unspecified)	inactive: > 100 µM
Cc1cc(-n2c(/C=C/c3ccc(Cl)cc3)nc3cc(Cl)ccc3c2=O)on1	inactive: 10.8 µM
CC1N(C)C(=O)OC12CCN(CCCC(=O)c1ccc(F)cc1)CC2 (stereo unspecified)	inactive: > 100 µM
COc1nc(SC)nc2c1C(O)n1c(nc3ccccc31)S2 (stereo unspecified)	inactive: 20.6 µM
O=C(O)c1ccc(C2=Cc3cc(Cl)ccc3OC2)cc1	inactive: > 100 µM
COC(=O)c1ccc(-n2c(C)nc(=O)c(-c3ccccc3)c2C)cc1	inactive: > 100 µM
Cc1ccc(NC(=O)CCC(=O)C2CC(=O)CCC2=O)cc1C (stereo unspecified)	inactive: > 100 µM
C[n+]1cc2cc(O)c(O)cc2c2ccc3cc(O)c(O)cc3c21.c1ccncc1	inactive: 2.57 µM
CO/C(=N/N1CC1C(F)(F)F)c1ccncc1 (stereo unspecified)	inactive: > 100 µM
CCCCCCCCCCCc1c(O)c(=O)c2c(oc3c(=O)c(CCCCCCCCCCC)c(O)c(=O)c3n2-c2ccc(N(C)C)cc2)c1=O	inactive: 31.7 µM
C/C(=N\O)c1cccc[n+]1Cc1ccccc1	inactive: > 100 µM
COC(=O)C1=C(c2cc(OC)c(OC)c(OC)c2)OC(c2ccc3c(c2)OCO3)C1 (stereo unspecified)	inactive: > 100 µM
O=C(Cc1ccc(O)c(O)c1)NCc1c[nH]c2ccccc12	inactive: 69.8 µM

SMILES	GI50
O=[N+]([O-])c1cccc(/N=C2\c3ccccc3CN2c2cccc([N+](=O)[O-])c2)c1	inactive: > 100 µM
O=C1/C(=C/c2ccccc2)CN(C(=O)/C=C/c2ccccc2)C/C1=C\c1ccccc1	inactive: 34.4 µM
CC(C)CCCC(C)[C@H]1CCC2[C@H]3C(CC[C@@]21C)[C@@]1(C)CCC=C[C@]12C[C@@H]2[C@@H]3O (stereo partly specified)	inactive: > 100 µM
NS(=O)(=O)c1nnc(NC(=O)Nc2ccc(Cl)c(Cl)c2)s1	inactive: 19.7 µM
COc1cccc(N2C(=O)[C@H]3[C@H]4CC(C(C)(C)C)CC[C@H]4c4c([nH]c5ccccc45)[C@H]3C2=O)c1 (stereo partly specified)	inactive: 19.6 µM
O=C(Nc1cc(Cl)ccc1Cl)c1cc2cccc(Br)c2oc1=O	inactive: > 100 µM
CCc1cccc(C(C)C)c1NC(=O)C(=O)C1C(=O)Nc2ccccc2[S+]1[O-] (stereo unspecified)	inactive: > 100 µM
O=C(O)C(Cc1cccs1)NC(=O)C(F)(F)F (stereo unspecified)	inactive: > 100 µM
O=C(O)c1cccc(/N=N/c2c(S(=O)(=O)O)ccc3c2C(=O)c2ccccc2C3=O)c1O	inactive: > 100 µM
COC(=O)c1cc(O)c(O)c(O)c1-c1c(O)c(O)c(O)c(SC[C@H](NC(=O)OCc2ccccc2)C(=O)OCc2ccccc2)c1C(=O)OC	inactive: 30 µM
CC1CC(C)C(C#N)N(C)c2ccccc21 (stereo unspecified)	inactive: > 100 µM
CCOC(=O)N(NC(=O)NC(C)C)c1ccccc1	inactive: > 100 µM
C=C(C)C(O)C(O)c1c(OC)ccc2ccc(=O)oc12 (stereo unspecified)	inactive: > 100 µM
COc1cc2c3c(cc(Cl)nc3c1OC)C(O)(CC(=O)c1ccccc1)C(=O)N2 (stereo unspecified)	inactive: 18 µM
COC1OC(CO)C(O)C(OC(=O)c2cc(O)c(O)c(O)c2)C1OC(=O)c1cc(O)c(O)c(O)c1 (stereo unspecified)	inactive: > 100 µM
O=C1/C(=C\c2cccc(Oc3ccccc3)c2)S(=O)(=O)C(c2ccccc2)N1c1ccccc1Cl (stereo unspecified)	inactive: 50.8 µM
CCOc1ccc2c(c1)[n+]([O-])c(C(N)=O)c(N)[n+]2[O-]	inactive: > 100 µM
Oc1ccc(Cl)cc1CN1CCN(Cc2cc(Cl)ccc2O)C1	active: 0.91 µM
COC(=O)C(/C(=N\O)C(=O)Nc1ccc(Br)cc1)c1nc2ccccc2nc1O (stereo unspecified)	inactive: > 100 µM
COc1ccccc1C(=O)N(Cc1ccccc1)c1ccc(Cl)c(C(=O)OC(C)C)c1	inactive: 32.9 µM
C=CCC(SC)C1=C(C)C(=O)c2ccccc21 (stereo unspecified)	inactive: > 10 µM
O=CN1CCN(CC(O)CN2CCCCC2)CC1 (stereo unspecified)	inactive: > 100 µM

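All cell lines were grown in 96-well plates and treated with compound for 48 hours. GI50 marks 50% less growth.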 The source made the active and inactive calls. Cut-off read from the data, not from the text of the source: active = GI50 up to about 1.1 µM and inactive = higher.
